# PubChem BioAssay AID2202238 (Ras Initiative Chemistry Research Team, Frederick National …, 2025)
# This is one part of the list. The main result of the screen is listed elsewhere. These columns were measured beside it and carry no call.
# Molecular target: GTPase KRas (Homo sapiens) (UniProt P01116)
# Assay: Fragment capture on engineered cysteines, share of protein labelled (AID 2202238)
# Parameters: protein at 5 µM with 500 µM competing thiol for 1.5 h
# Details: KRAS G12D cysteine mutants, disulfide tethering, MALDI-TOF labeling, stronger effect = higher value, fragment at 500 µM
# [1] = measured here: G75C mutant labeling
# [2] = measured here: H94C mutant labeling
# [3] = measured here: I36C mutant labeling
# [4] = measured here: L120C mutant labeling
# [5] = measured here: M67C mutant labeling
# [6] = measured here: M72C mutant labeling
# [7] = measured here: N86C mutant labeling
# [8] = measured here: P121C mutant labeling
# [9] = measured here: S122C mutant labeling
# [10] = measured here: S136C mutant labeling
# [11] = measured here: G60C mutant labeling
# [12] = measured here: N26C mutant labeling
# Sequence of UniProt P01116 (P01116 whole entry, looked up, the tested form may be a part): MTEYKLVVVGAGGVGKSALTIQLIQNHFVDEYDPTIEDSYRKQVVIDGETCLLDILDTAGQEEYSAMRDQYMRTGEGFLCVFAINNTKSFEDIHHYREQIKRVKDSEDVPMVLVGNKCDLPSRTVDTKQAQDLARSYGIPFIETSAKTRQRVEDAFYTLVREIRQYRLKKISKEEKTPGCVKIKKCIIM
SMILES,percent labeling [1],percent labeling [2],percent labeling [3],percent labeling [4],percent labeling [5],percent labeling [6],percent labeling [7],percent labeling [8],percent labeling [9],percent labeling [10],percent labeling [11],percent labeling [12]
Cc1nn(C)cc1CN(C(=O)CCS)C1CC1,13.3%,30.2%,34.7%,28%,42.8%,17.8%,11.9%,27.6%,37%,52.6%,,
O=C(Cn1cccnc1=O)Nc1ccc(F)c(NC(=O)CCS)c1,11.1%,16.7%,22.5%,19.2%,17.9%,22.4%,21.5%,15.2%,20.3%,27.2%,,
O=C(CCS)NCc1ccc(-n2ccc(C3CC3)n2)cc1,7.8%,23.2%,20.8%,16.5%,17.7%,25.7%,6.6%,15.6%,14.8%,26.7%,,
Cc1ccc(-c2noc3nc(C)cc(C(=O)NCCS)c23)cc1,9.4%,18.2%,12.5%,9.8%,12.9%,27%,6%,12.1%,7.3%,16.5%,38.1%,25%
CN(CC(=O)NCCS)Cc1cccc(C#N)c1,20.1%,37.5%,26.5%,34.7%,42.6%,41.9%,24.5%,30%,34.3%,59.6%,45.3%,43.3%
O=C(NCCS)c1ccccc1Cn1ccnn1,11.5%,31.9%,26.2%,30%,26.1%,26.8%,27.2%,31.1%,34.1%,40.6%,29.5%,36.9%
CN(C(=O)CCS)C1CCN(CC(F)(F)F)CC1,9.6%,34.2%,32.8%,35.8%,35.7%,17.5%,21.2%,36.5%,37%,50.7%,,
COc1cc2[nH]c(C(=O)NCCS)cc2c(OC)c1OC,20.5%,20.9%,20.2%,22.9%,17.3%,45.9%,16.5%,15.8%,14%,26.2%,31%,45.6%
Cn1nc(C(F)F)cc1CNC(=O)CCS,11.4%,25.8%,36.7%,28.7%,28.9%,17%,31.6%,30.9%,35.1%,44.7%,,
O=C(CC1(CC(=O)Nc2nccs2)CCCCC1)NCCS,16.7%,21.9%,12.1%,18.6%,14.8%,19.4%,11.6%,12.5%,9.5%,31.9%,34.5%,22.1%
Cc1cc(=O)oc2cc(NC(=O)CCS)ccc12,7.7%,13.4%,32.7%,14.2%,17.2%,37.1%,10.8%,13.4%,9.9%,28.8%,,
O=C(NCCS)C1CCN(c2cnccn2)CC1,12.9%,33.5%,24.8%,40.5%,29.9%,19%,30.4%,31.6%,31.3%,46.8%,37.2%,40.1%
